# Measurements as given in the supplement of paper PMC11417369.
# The other results are listed elsewhere or left out.
# Tested on: PfHDP1 homeodomain (GST-tagged)
# Assay: gcPBM binding intensity (ln(normalized median fluorescence intensity)); higher = stronger DNA binding
# Procedure, shortened: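 Binding intensity values are the highest Masliner-normalised natural-log median intensity among replicate spots of either probe orientation. The binding step lasted 1 h in 1× PBS with 1% milk, 0.2 mg/ml BSA, 0.5% salmon testes DNA and 0.03% Triton X-100, using GST-tagged P. falciparum DNA-binding domains expressed in E. coli on an Agilent 4 × 180k array of primer-extended double-stranded 36-bp intergenic genomic probes plus negative controls. Alexa488 anti-GST antibody and a 488 nm scan detected bound protein.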
row,Sequence,gcPBM binding intensity (ln)
1,ACATGCAACCATTCGGGTACAGAAATAAATATATAC [XGTACX_site4174],6.48
2,CTTTTTCGCATGAAAAGTACATGAAATATATTACAT [XGTACX_site8971],6.17
3,AATAACTTTTTAAACACACACACATATAAATAAATA [CACACA_site6196],6.97
4,ATTGGAAAATATGTTATATATATATATATATATATG [CACACA_negctrl_site116],7.46
5,TTAATTCGTACATACACACGCACATATATATATATA [CACACA_site1469],9.4
6,ATATTTTTTTTCTACACACATACAAATATATATTAT [CACACA_site2359],7.34
7,AATAATAATAGAAACACACACACATCTTTAATAATA [CACACA_site4805],6.76
8,ATATTAAAATACAGTGCATGTTAAAAATATATTATA [TGCATGCA_site977],7.4
9,TTATAACATCTTAAATGTACAAATATGTGCTTATTT [XGTACX_site7285],6.26
10,AATAAAAGTTCACCTGTACACACATATATATATGTA [CACACA_site8500],6.7
11,TAAAAAAAAAACATCTGTACCAATTTTTATGTATAA [XGTACX_site5196],6.2
12,ATGTATTTATATACTTGTACGTAAGATGTATTATAT [XGTACX_site908],6.52
13,TTAAGATCCTAAAAAACACACAATTGCGAATAATAA [CACACA_site6005],6.8
14,ATATCATAAAAAATGTGTACATATATGAACATATAA [XGTACX_site2239],6.6
15,GATATATATGTTCACACACACATGGAAATATATATA [CACACA_site4371],6.62
16,GGAAATTAACAGAACACAATGTAACAATTTCTAACA [CACACA_negctrl_site1250],6.29
17,TATTTTCATTATACTACTTCGAAGATACCCTTTTTT [CACACA_negctrl_site256],6.53
18,AGATAAATATATTGTAGTACAGGAGCATAAATATAT [XGTACX_site8267],8.68
19,GTTCTTCCTTGTAAATGTACAAATACAAAATGTTCC [XGTACX_site6738],6.88
20,TATAAACATTAAAGGTGTACAATTTAATTTCAATTT [XGTACX_site2944],6.28
21,GTTCATAAAAATTTTTGTACCCATAAAATATTCCTC [XGTACX_site8611],6.55
22,TTTTTTTTTTTTAATTGTACTTATTAAAAAAAGCAA [XGTACX_site8713],6.2
23,GTAGGTGTTTTTGGTTGTACATATAAATATATATAC [XGTACX_site3380],7.05

row,Sequence,gcPBM binding intensity (ln)
1,TTTCTTCTTCAATGTTGTACTTTTCTCTTTTCTTAA [XGTACX_site1017],6.91
2,TTTTTTTTTTTTCAATCACACATGTTTTAATTATTT [CACACA_site5532],6.21
3,TCATTTCACAGACACACACACACAAGATATTTCCTT [CACACA_site7774],7.06
4,TGTACGTTTTATAACACACACACAAAAAAAAAAAAA [CACACA_site3875],6.61
5,GAAGTTTTCTTAAAGATGCACTTTTTAAAAATAAAA [GTGCAC_site9941],6.81
6,TCTTCTTTTTTTTTTTTGTATTATTATAAATATTAT [CACACA_negctrl_site1668],6.53
7,AAGATAAAATGATGCACACAAAAGGGTGTAATATAT [CACACA_site1706],8.59
8,TTTTTTTTTTTTAATGCACACAATATATAATATGTA [CACACA_site3694],10.2
9,ATATTATTATATATAGTGCATATTATTATTTTTATT,8.22
10,CATTATTCTTTTAATATACACACTTTGTCTTTTCGC [CACACA_site2762],6.62
11,TCTCATAGTAAACACACACACACACCCACATATATA [CACACA_site5034],7.01
12,TATGCACTTTAGGGCAGTACGTCAACATTATCTTTA [XGTACX_site3382],7.86
13,CCTCATACGAAATATAAACACACATACAATAAATAA [CACACA_site8620],6.82
14,TATATTTATTATAACACACACATATAAATATTATAG [CACACA_site6726],6.74
15,TGTTAAAATTATTTGGTGCACTTGTTTTACCTTATT,9.92
16,ATAAATTTTTTTTTTTTTTTTTTTTTTTTTTTTTTT [CACACA_negctrl_site508],7.38
17,ATTTTTTTCATAGACACACACAATATATCTGTTTCC [CACACA_site3023],6.83
18,TATTAATTTCGGGAAGTGCATTATGTTTATAGAATA,8.75
19,TGTTTTAAACTAATTTGTACATAGTTATTTATATTT [XGTACX_site7196],6.36
20,ATTATATAAGTACACAAACAAGTATGAGATTCAAAA [GTGCAC_negctrl_site119],6.12
21,CCATATATTTGGTATAGTACTTTTTATTTTATTTCA [XGTACX_site8933],6.53
22,ATATATTTTTCTTTACGTACGAAGCAAAATAACATT [XGTACX_site8145],6.18
